One assay concerns HSkMC. Put plainly: cytotoxicity call (relative viability < 0.9). As to conditions: 10 µM.
The subject of another assay is HepG2. Put plainly: cytotoxicity call (relative viability < 0.9). As to conditions: 10 µM.
In a further assay the test system is S. aureus RN4220. Put plainly: growth inhibition call (relative growth <= 0.2). As to conditions: 50 µM.

We go through 30 compounds from the antibiotic and cytotoxicity screens of Wong et al. (2023).

This is one part of the list.

Regarding `CCC(C)n1ncn(-c2ccc(N3CCN(c4ccc(OCC5COC(Cn6cncn6)(c6ccc(Cl)cc6Cl)O5)cc4)CC3)cc2)c1=O.Cl.Cl` (stereo not given), the cytotoxicity call with HSkMC was “inactive”. The cytotoxicity call with HepG2 was “active”. In addition, the growth inhibition call in the assay with S. aureus RN4220 was “inactive”.

With `C[C@H]1CN([C@@H](C)CO)C(=O)c2cccc(NC(=O)c3cnccn3)c2O[C@@H]1CN(C)CC1CCCCC1`, the cytotoxicity call in the assay with HSkMC and with HepG2 was “inactive” each time. The growth inhibition call with S. aureus RN4220 is “inactive”.

For the compound `C[C@H]1CN([C@@H](C)CO)C(=O)c2cc(NS(C)(=O)=O)ccc2O[C@H]1CN(C)S(=O)(=O)c1cccs1`, the cytotoxicity call in the assay on HSkMC and with HepG2 was “inactive” throughout. Also, in the assay with S. aureus RN4220, the growth inhibition call is “inactive”.

Turning to `C[C@H]1CN([C@@H](C)CO)C(=O)Cc2cc(NS(=O)(=O)c3ccc(Cl)cc3)ccc2O[C@H]1CN(C)C(=O)Nc1ccc(C(F)(F)F)cc1`, the cytotoxicity call in the assay with HSkMC and in the assay with HepG2 was “inactive” throughout. The growth inhibition call in the assay on S. aureus RN4220 is “inactive”.

`C=C1CC[C@H]2[C@H](CN)[C@@H]([C@@]3(C)CC[C@H](O)C[C@@H]3CO)CC[C@]12C`: the cytotoxicity call in the assay on HSkMC and in the assay on HepG2 was “inactive” in each case. The growth inhibition call in the assay on S. aureus RN4220 is “inactive”.

Turning to `c1ccc(/N=C2\S/C(=N\C3CCCCC3)C3=C2CCCC3)cc1`, the cytotoxicity call in the assay with HSkMC and in the assay with HepG2 was “inactive” in each case. Also, the growth inhibition call in the assay with S. aureus RN4220 is “inactive”.

For the compound `C[C@@H]1CN([C@H](C)CO)C(=O)c2cc(NC(=O)Nc3ccc(C(F)(F)F)cc3)ccc2O[C@@H](C)CCCCO[C@@H]1CN(C)Cc1ccc(C(=O)O)cc1`, the cytotoxicity call with HSkMC and with HepG2 was “inactive” throughout. Besides, the growth inhibition call with S. aureus RN4220 is “inactive”.

As for `Cn1cc(-c2[nH]c3cc(NC(=O)[C@H](N)C4CCCCC4)cc4c3c2C=NNC4=O)cn1`, the cytotoxicity call in the assay on HSkMC and with HepG2 was “active” throughout. Moreover, in the assay with S. aureus RN4220, the growth inhibition call was “inactive”.

Turning to `CSc1nc(=O)c(C)n[nH]1`, the cytotoxicity call in the assay on HSkMC and in the assay with HepG2 was “inactive” in each case. Further, the growth inhibition call in the assay on S. aureus RN4220 is “inactive”.

As to `COc1ccc(S(=O)(=O)Nc2ccc3c(c2)CC(=O)N([C@H](C)CO)C[C@@H](C)[C@H](CN(C)Cc2ccc(Oc4ccccc4)cc2)O3)cc1`, the cytotoxicity call with HSkMC and in the assay with HepG2 was “active” in each case. Also, the growth inhibition call in the assay with S. aureus RN4220 is “inactive”.

On to `O=C(C[C@H]1CC[C@H](NC(=O)Nc2ccc3c(c2)OCO3)[C@@H](CO)O1)NCCCN1CCOCC1`, for which the cytotoxicity call with HSkMC and with HepG2 was “inactive” each time. Also, the growth inhibition call in the assay on S. aureus RN4220 was “inactive”.

On to `COc1ccc(NC(=O)Nc2ccc3c(c2)C(=O)N([C@H](C)CO)C[C@H](C)[C@@H](CN(C)S(=O)(=O)c2ccc(C)cc2)OCCCC[C@H](C)O3)cc1`, for which the cytotoxicity call in the assay with HSkMC and in the assay on HepG2 was “inactive” in each case. Also, the growth inhibition call in the assay on S. aureus RN4220 was “inactive”.

On to `CCn1cc(C(=O)N2CCN(C)CC2)c(=O)c2cc(S(=O)(=O)N(C)C)ccc21`, for which the cytotoxicity call in the assay with HSkMC and in the assay on HepG2 was “inactive” each time. Besides, the growth inhibition call with S. aureus RN4220 was “inactive”.

As for `COCC(=O)Nc1ccc2c(c1)C(=O)N(C)C[C@H](OC)[C@@H](C)CN(Cc1ccccc1OC)[C@H](C)CO2`, the cytotoxicity call in the assay with HSkMC and with HepG2 was “inactive” throughout. Also, the growth inhibition call in the assay on S. aureus RN4220 was “inactive”.

In the case of `COc1ccc2c3c(n(c2c1)C)[C@H](CO)N(C[C@]13CN(C1)C(=O)Nc1cccc(c1)F)S(=O)(=O)C`, the cytotoxicity call with HSkMC and in the assay on HepG2 was “inactive” in each case. Also, the growth inhibition call with S. aureus RN4220 was “inactive”.

As to `C[C@@H]1CN([C@@H](C)CO)C(=O)c2cc(Br)cnc2O[C@H]1CN(C)C(=O)CN1CCOCC1`, the cytotoxicity call in the assay with HSkMC and in the assay with HepG2 was “inactive” throughout. In addition, in the assay on S. aureus RN4220, the growth inhibition call is “inactive”.

Take `C[C@@H]1CN([C@@H](C)CO)C(=O)c2cccc(NC(=O)Nc3cccc4ccccc34)c2O[C@H]1CN(C)S(=O)(=O)c1cccs1`: the cytotoxicity call in the assay with HSkMC and in the assay with HepG2 was “inactive” in each case. Moreover, the growth inhibition call with S. aureus RN4220 was “inactive”.

As for `C[C@H](CO)N1C[C@H](C)[C@@H](CN(C)S(C)(=O)=O)Oc2ccc(N(C)C)cc2C1=O`, the cytotoxicity call with HSkMC and in the assay with HepG2 was “inactive” each time. Moreover, the growth inhibition call in the assay with S. aureus RN4220 is “inactive”.

Turning to `C[C@@H](C(=O)O)n1ncccc1=O`, the cytotoxicity call in the assay on HSkMC and in the assay on HepG2 was “inactive” in each case. The growth inhibition call in the assay on S. aureus RN4220 is “inactive”.

Turning to `C[C@@H]1CN([C@@H](C)CO)S(=O)(=O)c2ccc(-c3ccncc3)cc2O[C@H]1CN(C)C(=O)c1cccc(F)c1`, the cytotoxicity call with HSkMC and with HepG2 was “inactive” throughout. In addition, in the assay with S. aureus RN4220, the growth inhibition call is “inactive”.

For `C[C@@H]1Cn2nncc2CO1`, the cytotoxicity call with HSkMC and with HepG2 was “inactive” in each case. In the assay with S. aureus RN4220, the growth inhibition call was “inactive”.

As for `C[C@@H]1CN([C@H](C)CO)C(=O)c2cc(NC(=O)Nc3ccc4c(c3)OCO4)ccc2O[C@@H](C)CCCCO[C@H]1CN(C)C(=O)C1CCCCC1`, the cytotoxicity call with HSkMC and with HepG2 was “inactive” each time. Besides, the growth inhibition call in the assay on S. aureus RN4220 was “inactive”.

As to `C[C@@H]1CN([C@@H](C)CO)C(=O)c2cc(NS(=O)(=O)c3cn(C)cn3)ccc2O[C@@H]1CN(C)C(=O)Nc1ccc2c(c1)OCO2`, the cytotoxicity call in the assay on HSkMC and in the assay on HepG2 was “inactive” throughout. Moreover, in the assay on S. aureus RN4220, the growth inhibition call is “inactive”.

On to `C[C@H]1c2cccc(O)c2C(=O)C2=C(O)[C@]3(O)C(=O)[C@@H](C(N)=O)C(=O)[C@@H](N(C)C)[C@@H]3[C@@H](O)[C@@H]21`, for which the cytotoxicity call with HSkMC and in the assay with HepG2 was “inactive” in each case. Also, in the assay with S. aureus RN4220, the growth inhibition call is “active”.

In the case of `Cc1ccc(S(=O)(=O)N2C[C@@H](O)COC[C@@H]3O[C@H](CC(=O)NCCN4CCCCC4)CC[C@H]32)cc1`, the cytotoxicity call in the assay on HSkMC and in the assay on HepG2 was “inactive” in each case. For the same compound, the growth inhibition call in the assay on S. aureus RN4220 is “inactive”.

Turning to `O=c1[nH]cnc2c1ncn2C1CCC(CO)O1` (stereo not given), the cytotoxicity call in the assay on HSkMC and in the assay with HepG2 was “inactive” each time. For the same compound, the growth inhibition call in the assay with S. aureus RN4220 is “inactive”.

In the case of `COc1ccc(CC(=O)c2ccc(O)cc2O)cc1`, the cytotoxicity call in the assay with HSkMC and in the assay on HepG2 was “inactive” throughout. Besides, in the assay with S. aureus RN4220, the growth inhibition call is “inactive”.

On to `CO[C@H]1C[C@H](O[C@@H]2/C(C)=C/C[C@@H]3C[C@@H](C[C@]4(CC[C@H](C)[C@@H](C5CCCCC5)O4)O3)OC(=O)[C@@H]3C=C(C)/C(=N/O)[C@H]4OC/C(=C\C=C\[C@@H]2C)[C@]43O)O[C@@H](C)[C@@H]1O`, for which the cytotoxicity call with HSkMC and in the assay on HepG2 was “active” each time. In addition, in the assay on S. aureus RN4220, the growth inhibition call is “active”.

Consider `C[C@H](CO)N1C[C@H](C)[C@@H](CN(C)C(=O)CN(C)C)Oc2cc(C#CCN(C)C)ccc2S1(=O)=O`, for which the cytotoxicity call in the assay with HSkMC and in the assay with HepG2 was “inactive” in each case. For the same compound, the growth inhibition call in the assay with S. aureus RN4220 was “inactive”.

Turning to `CC(C)NC(=O)Nc1ccc2c(c1)C(=O)N([C@@H](C)CO)C[C@@H](C)[C@H](CN(C)Cc1ccc(-c3ccccc3)cc1)O2`, the cytotoxicity call in the assay on HSkMC (human skeletal muscle cells) and with HepG2 was “inactive” each time. The growth inhibition call in the assay with S. aureus RN4220 is “inactive”.
